Source: publication PMC4336329 (PLoS ONE, 2015)
The whole screen tested about 310,000 compounds, of which about 2,200 (0.71%) showed an effect of 50% or more. Effects have a minus sign here. The list shows a part of the results.

Biological target: human ether-à-go-go-related gene (hERG) potassium channel (human, UniProt Q12809)
Test: primary screen, population patch clamp on CHO cells stably expressing hERG

Chain of human ether-à-go-go-related gene (hERG) potassium channel (Q12809 whole entry, looked up): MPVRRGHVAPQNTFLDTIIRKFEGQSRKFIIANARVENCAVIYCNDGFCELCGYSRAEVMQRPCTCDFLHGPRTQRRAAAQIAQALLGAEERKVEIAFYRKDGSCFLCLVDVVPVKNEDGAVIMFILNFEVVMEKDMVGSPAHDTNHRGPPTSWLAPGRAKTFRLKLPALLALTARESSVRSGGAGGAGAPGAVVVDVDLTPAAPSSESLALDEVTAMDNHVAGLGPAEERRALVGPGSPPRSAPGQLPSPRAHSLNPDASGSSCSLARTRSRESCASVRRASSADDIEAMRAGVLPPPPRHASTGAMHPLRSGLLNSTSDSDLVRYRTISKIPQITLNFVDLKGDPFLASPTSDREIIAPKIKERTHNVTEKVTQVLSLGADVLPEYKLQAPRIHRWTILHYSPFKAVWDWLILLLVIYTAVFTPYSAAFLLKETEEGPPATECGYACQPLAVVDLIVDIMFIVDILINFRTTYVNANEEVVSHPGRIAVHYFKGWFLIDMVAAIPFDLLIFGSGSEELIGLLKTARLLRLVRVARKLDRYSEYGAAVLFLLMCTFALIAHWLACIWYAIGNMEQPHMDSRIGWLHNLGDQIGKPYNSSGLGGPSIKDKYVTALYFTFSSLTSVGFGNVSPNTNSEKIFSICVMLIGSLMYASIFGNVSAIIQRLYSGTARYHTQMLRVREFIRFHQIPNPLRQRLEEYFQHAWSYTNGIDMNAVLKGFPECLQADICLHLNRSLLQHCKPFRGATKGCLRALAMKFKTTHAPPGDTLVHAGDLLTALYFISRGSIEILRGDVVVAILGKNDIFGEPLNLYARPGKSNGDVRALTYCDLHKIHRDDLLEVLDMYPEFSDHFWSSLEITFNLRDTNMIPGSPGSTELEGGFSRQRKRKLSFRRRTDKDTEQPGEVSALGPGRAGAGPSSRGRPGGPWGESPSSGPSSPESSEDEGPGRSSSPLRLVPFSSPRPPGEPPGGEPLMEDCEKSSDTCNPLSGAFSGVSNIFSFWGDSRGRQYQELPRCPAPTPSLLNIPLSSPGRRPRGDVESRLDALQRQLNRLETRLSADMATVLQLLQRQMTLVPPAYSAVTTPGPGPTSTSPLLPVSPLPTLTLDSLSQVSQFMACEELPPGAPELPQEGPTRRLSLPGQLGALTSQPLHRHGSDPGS

Q: How did the “hERG current change (%, negative = inhibition) at 1uM” value turn out when `CC(C)(CSc1nncn1/N=C/c1ccco1)NS(=O)(=O)c1ccc(Cl)cc1` was run?
A: -15.5%

Q: Which “hERG current change (%, negative = inhibition) at 1uM” value does the source give for `Cn1ccnc1C(=O)C1CCCN(Cc2cn[nH]c2-c2ccc(-c3ccccc3)cc2)C1` (stereo not drawn) here?
A: -2.02%

Q: How did the “hERG current change (%, negative = inhibition) at 1uM” value turn out when `COCCNC(=O)/C=C/c1c(Cl)cccc1Cl` was run?
A: 10.1%

Q: Which “hERG current change (%, negative = inhibition) at 1uM” value does the source give for `COC(=O)c1ccc2c(c1)sc(=NC(=O)CCS(=O)(=O)c1ccccc1)n2C` here?
A: -12.3%

Q: `O=C(COc1ccc([N+](=O)[O-])cc1)N1CCN(c2nnc(-c3ccccc3)c3ccccc23)CC1` was tested. Which “hERG current change (%, negative = inhibition) at 1uM” value did it give?
A: -22.8%

Q: `C=C(C)CNc1cc(S(=O)(=O)N2CCOCC2)ccc1Oc1ccccc1` was tested. Which “hERG current change (%, negative = inhibition) at 1uM” value did it give?
A: 9.91%

Q: How did the “hERG current change (%, negative = inhibition) at 1uM” value turn out when `CC(=O)Nc1ccc(S(=O)(=O)Nc2c(C)n(C)n(-c3ccccc3)c2=O)cc1` was run?
A: 4.11%

Q: For `Cc1cc(C)cc(-n2c(C)cc(/C=C3\C(=N)N4N=C(CC(C)C)SC4=NC3=O)c2C)c1`, which “hERG current change (%, negative = inhibition) at 1uM” value is on record?
A: 8.06%

Q: Which “hERG current change (%, negative = inhibition) at 1uM” value does the source give for `C=CCN1C(=O)c2ccc(C(=O)N(CC)CC(=O)Nc3cc(Cl)ccc3C)cc2C1=O` here?
A: 1.92%

Q: Which “hERG current change (%, negative = inhibition) at 1uM” value does the source give for `O=C(CN=C1NC(=O)C(c2ccccc2)(c2ccccc2)N1)NCc1ccc(F)cc1` here?
A: 5.22%

Q: Which “hERG current change (%, negative = inhibition) at 1uM” value does the source give for `CCOC(=O)CSc1nnc2cc(C)c3ccccc3n12` here?
A: -4.33%

Q: Which “hERG current change (%, negative = inhibition) at 1uM” value does the source give for `COc1ccc(N2CCN(C(CNC(=O)C3CCCCC3)c3ccco3)CC2)cc1` (stereo not drawn) here?
A: 14.7%

Q: For `CCn1c(CN2CCOCC2)nnc1SCC(=O)Nc1ccccc1Cl`, which “hERG current change (%, negative = inhibition) at 1uM” value is on record?
A: 18.9%

Q: For `N#Cc1c(Nc2ccccc2)c(C=O)c[nH]c1=O`, which “hERG current change (%, negative = inhibition) at 1uM” value is on record?
A: 12.3%

Q: For `CNC(=O)c1cc2c(=O)n3cc(C)ccc3nc2n(C(C)C)c1=N`, which “hERG current change (%, negative = inhibition) at 1uM” value is on record?
A: -81.9%

Q: How did the “hERG current change (%, negative = inhibition) at 1uM” value turn out when `CN(Cc1ccccc1)S(=O)(=O)c1cccs1` was run?
A: 4.87%

Q: `Cc1sc2c(=O)n3c(nc2c1C(=O)NCCCN1CCOCC1)CCCCC3` was tested. Which “hERG current change (%, negative = inhibition) at 1uM” value did it give?
A: -7.25%

Q: How did the “hERG current change (%, negative = inhibition) at 1uM” value turn out when `CCOC(=O)c1sc(-c2ccccc2)cc1NC(=O)CSc1nnnn1C` was run?
A: 10.1%

Q: For `COc1ccc(C2=C(Nc3ccccc3)c3ccccc3C2=O)cc1`, which “hERG current change (%, negative = inhibition) at 1uM” value is on record?
A: 0.527%

Q: `Cc1oc(-c2ccccc2Cl)nc1Cn1cccc1C1=NC(c2ccccc2)CO1` (stereo not drawn) was tested. Which “hERG current change (%, negative = inhibition) at 1uM” value did it give?
A: 9.14%

Q: Which “hERG current change (%, negative = inhibition) at 1uM” value does the source give for `Cc1nc(NCCN2CCOCC2)c2nnn(Cc3ccccc3Cl)c2n1` here?
A: -4.81%

Q: With `O=C(Nc1ccccc1F)C1CCCC1` as the compound, how does the “hERG current change (%, negative = inhibition) at 1uM” value read?
A: 9.67%

Q: How did the “hERG current change (%, negative = inhibition) at 1uM” value turn out when `Cc1cc(Oc2ccc(=O)n(C)n2)nc(Oc2ccc(=O)[nH]n2)n1` was run?
A: 5.36%

Q: With `COc1cccc(CNCCNC(=O)c2nonc2N)c1.Cl` as the compound, how does the “hERG current change (%, negative = inhibition) at 1uM” value read?
A: 12.3%

Q: With `CNC(=S)N1CCc2cc(OC)c(OC)cc2C1COc1ccc(F)cc1` (stereo not drawn) as the compound, how does the “hERG current change (%, negative = inhibition) at 1uM” value read?
A: -1.01%

Q: For `CCOc1ncccc1C(=O)OCc1ccc(C#N)cc1`, which “hERG current change (%, negative = inhibition) at 1uM” value is on record?
A: 1.85%

Q: With `Cc1ccc(-c2c[n+](CC(=O)N3c4ccccc4Sc4ccccc43)c3n2CCC3)cc1.[Cl-]` as the compound, how does the “hERG current change (%, negative = inhibition) at 1uM” value read?
A: 4.24%

Q: `CN(C)/C=C/C(=O)c1ccc(C(F)(F)F)cc1F` was tested. Which “hERG current change (%, negative = inhibition) at 1uM” value did it give?
A: 1.32%

Q: For `Cn1cc(Cl)c(C(=O)NC2CCCCCC2)n1`, which “hERG current change (%, negative = inhibition) at 1uM” value is on record?
A: 9.2%

Q: With `CCN1CCN(C(=O)Nc2cc(Cl)ccc2OC)CC1` as the compound, how does the “hERG current change (%, negative = inhibition) at 1uM” value read?
A: 8.62%

Q: For `O=C(Nc1ccc(Cl)cc1Cl)c1ccc2c(c1)OCCO2`, which “hERG current change (%, negative = inhibition) at 1uM” value is on record?
A: -2.28%

Q: For `CCC(=O)c1ccc(OC(C)C(=O)NC2(C#N)CCCCC2)cc1` (stereo not drawn), which “hERG current change (%, negative = inhibition) at 1uM” value is on record?
A: 29%

Q: How did the “hERG current change (%, negative = inhibition) at 1uM” value turn out when `COc1ccc(NS(=O)(=O)c2ccc3[nH]c(=O)[nH]c3c2)cc1` was run?
A: 12.6%

Q: Which “hERG current change (%, negative = inhibition) at 1uM” value does the source give for `CC(=O)N1CC(C)Sc2ccc(S(=O)(=O)NC3CCCCC3C)cc21` (stereo not drawn) here?
A: 1.42%

Q: `O=C1CSCN1c1ccc(Cl)c(Cl)c1` was tested. Which “hERG current change (%, negative = inhibition) at 1uM” value did it give?
A: 4.57%

Q: How did the “hERG current change (%, negative = inhibition) at 1uM” value turn out when `CSCC(O)Cn1[nH]c(=O)c2cc(Cl)c(Cl)cc2c1=O` (stereo not drawn) was run?
A: 2.31%

Q: For `O=C(O)c1cc(S(=O)(=O)NCc2ccco2)c(Cl)cc1Cl`, which “hERG current change (%, negative = inhibition) at 1uM” value is on record?
A: 8.86%

Q: With `Cc1cc(Cl)c(S(=O)(=O)N2CCSCC2)cc1OCC(N)=O` as the compound, how does the “hERG current change (%, negative = inhibition) at 1uM” value read?
A: 2.36%

Q: Which “hERG current change (%, negative = inhibition) at 1uM” value does the source give for `NC(=O)C1(N2CCCCC2)CCN(S(=O)(=O)c2cc(Cl)ccc2Cl)CC1` here?
A: 6.2%

Q: With `O=C(Cn1nc(-c2ccccc2)ccc1=O)NCC1COCCO1` (stereo not drawn) as the compound, how does the “hERG current change (%, negative = inhibition) at 1uM” value read?
A: 5.37%

Q: With `CN(C)c1nc2c(N)ncnc2n1[C@H]1O[C@@H](CO)[C@H](O)[C@@H]1O` as the compound, how does the “hERG current change (%, negative = inhibition) at 1uM” value read?
A: 6.27%

Q: How did the “hERG current change (%, negative = inhibition) at 1uM” value turn out when `COc1cnc(-c2ccccn2)nc1Sc1ccccc1` was run?
A: 10.5%

Q: With `Cc1cc(N2CCCC2)nc2ccc(NC(=S)NCCCOC(C)C)cc12` as the compound, how does the “hERG current change (%, negative = inhibition) at 1uM” value read?
A: -78.6%

Q: For `O=C(/C=C/c1ccc(Br)o1)NC(c1ccccc1)c1ccccc1`, which “hERG current change (%, negative = inhibition) at 1uM” value is on record?
A: 7.16%

Q: Which “hERG current change (%, negative = inhibition) at 1uM” value does the source give for `C=CCSc1nc2ccccc2c2nc(-c3ccccc3)nn12` here?
A: 14.5%

Q: Which “hERG current change (%, negative = inhibition) at 1uM” value does the source give for `CC1=C(C(=O)OCc2ccc3c(c2)OCO3)C(c2ccc(F)cc2)NC(=O)N1` (stereo not drawn) here?
A: 2.75%

Q: `COc1cccc(N2CCN(CC(=O)Nc3ccc(S(=O)(=O)N4CCCCCC4)cc3)CC2)c1` was tested. Which “hERG current change (%, negative = inhibition) at 1uM” value did it give?
A: -13.2%

Q: Which “hERG current change (%, negative = inhibition) at 1uM” value does the source give for `COc1ccc(NC(=O)Cn2c(=O)oc3cc(Cl)ccc32)c(OC)c1` here?
A: 13.5%

Q: Which “hERG current change (%, negative = inhibition) at 1uM” value does the source give for `O=C(c1ccc(Cl)cc1)N1CCN(C(=O)C2CCCCC2)CC1` here?
A: 2.56%

Q: How did the “hERG current change (%, negative = inhibition) at 1uM” value turn out when `CCC(Oc1ccc(C)cc1)C(=O)Nc1ccccc1C(=O)N1CCOCC1` (stereo not drawn) was run?
A: 15.5%

Q: For `COc1ccc(N2CCN(c3oc(-c4ccccc4OC)nc3C#N)CC2)cc1`, which “hERG current change (%, negative = inhibition) at 1uM” value is on record?
A: -2.55%

Q: How did the “hERG current change (%, negative = inhibition) at 1uM” value turn out when `COC(=O)c1sc(NC(=O)c2cc(C)on2)nc1C` was run?
A: 5.24%

Q: `COc1cc(C)ccc1OCC(=O)Nc1ccccc1N1CCOCC1` was tested. Which “hERG current change (%, negative = inhibition) at 1uM” value did it give?
A: 0.515%

Q: For `O=C(/C=C/c1ccccc1)NCCOc1ccccc1`, which “hERG current change (%, negative = inhibition) at 1uM” value is on record?
A: 15.6%

Q: Which “hERG current change (%, negative = inhibition) at 1uM” value does the source give for `Cc1cccc(NC(=O)c2nc[nH]c2C(=O)N(C)Cc2ccccc2)c1` here?
A: 13.8%

Q: With `Cc1ccc(S(=O)(=O)N2CCC(C(=O)OCCOc3cccc(C)c3)CC2)cc1` as the compound, how does the “hERG current change (%, negative = inhibition) at 1uM” value read?
A: 14.9%

Q: Which “hERG current change (%, negative = inhibition) at 1uM” value does the source give for `O=C1C2C(c3cccc(/C=C/c4ccccc4)c3)CC=CC2C(c2ccc3ccccc3c2)N1Cc1ccccc1` (stereo not drawn) here?
A: 11%
